# From the supplement of paper PMC8728848
# Some of the results follow.
# B1: SpnanA (Streptococcus pneumoniae), P62575 (protein)
# chain: MVIEKEDVETNASNGQRVDLSSELDKLKKLENATVHMEFKPDAKAPAFYNLFSVSSATKKDEYFTMAVYNNTATLEGRGSDGKQFYNNYNDAPLKVKPGQWNSVTFTVEKPTAELPKGRVRLYVNGVLSRTSLRSGNFIKDMPDVTHVQIGATKRANNTVWGSNLQIRNLTVYNRALTPEEVQKRS
# Legend:
# Test in all cases: glycan array binding signal (z-score within array); higher = stronger binding
# Details in all cases: glycan notation: IUPAC condensed, linker removed
# Fuc(a1-2)Gal = target: Fuc(a1-2)Gal
# Summary of the method: (§1)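 Columns mapping to the same glycan were averaged after glycan names were converted to IUPAC-condensed notation. The data come from 3228 arrays in the Consortium for Functional Glycomics database, limited to those with an available protein sequence. Binding is reported as a within-array Z-score averaged across arrays of one protein sequence and across linkers.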
# Fuc(a1-2)Gal(b1-3)GalNAc = target: Fuc(a1-2)Gal(b1-3)GalNAc
# Summary of the method: as §1
# [1] = target: Fuc(a1-2)Gal(b1-3)GalNAc(a1-3)[Fuc(a1-2)]Gal(b1-4)Glc
# Summary of the method: as §1
# [2] = target: Fuc(a1-2)Gal(b1-3)GalNAc(a1-3)[Fuc(a1-2)]Gal(b1-4)GlcNAc
# Summary of the method: as §1
# [3] = target: Fuc(a1-2)Gal(b1-3)GalNAc(b1-3)Gal
# Summary of the method: as §1
# [4] = target: Fuc(a1-2)Gal(b1-3)GalNAc(b1-3)Gal(a1-4)Gal(b1-4)Glc
# Summary of the method: as §1
# [5] = target: Fuc(a1-2)Gal(b1-3)GalNAc(b1-4)[Neu5Ac(a2-3)]Gal(b1-4)Glc
# Summary of the method: as §1
# Fuc(a1-2)Gal(b1-3)GlcNAc = target: Fuc(a1-2)Gal(b1-3)GlcNAc
# Summary of the method: as §1
# [6] = target: Fuc(a1-2)Gal(b1-3)GlcNAc(b1-2)Man(a1-3)[Fuc(a1-2)Gal(b1-3)GlcNAc(b1-2)Man(a1-6)]Man(b1-4)GlcNAc(b1-4)GlcNAc
# Summary of the method: as §1
# [7] = target: Fuc(a1-2)Gal(b1-3)GlcNAc(b1-2)Man(a1-3)[Fuc(a1-2)Gal(b1-3)GlcNAc(b1-2)Man(a1-6)]Man(b1-4)GlcNAc(b1-4)[Fuc(a1-6)]GlcNAc
# Summary of the method: as §1
# [8] = target: Fuc(a1-2)Gal(b1-3)GlcNAc(b1-3)Gal(b1-4)Glc
# Summary of the method: as §1
# [9] = target: Fuc(a1-2)Gal(b1-3)GlcNAc(b1-3)GalNAc
# Summary of the method: as §1
# [10] = target: Fuc(a1-2)Gal(b1-3)GlcNAc(b1-3)[Fuc(a1-2)Gal(b1-3)GlcNAc(b1-6)]GalNAc
# Summary of the method: as §1
# [11] = target: Fuc(a1-2)Gal(b1-3)GlcNAc(b1-3)[Fuc(a1-3)[Gal(b1-4)]GlcNAc(b1-6)]Gal(b1-4)Glc
# Summary of the method: as §1
# [12] = target: Fuc(a1-2)Gal(b1-3)GlcNAc(b1-3)[Gal(b1-4)GlcNAc(b1-6)]Gal(b1-4)Glc
# Summary of the method: as §1
# [13] = target: Fuc(a1-2)Gal(b1-3)GlcNAc(b1-3)[Neu5Ac(a2-6)Gal(b1-4)GlcNAc(b1-6)]Gal(b1-4)Glc
# Summary of the method: as §1
# [14] = target: Fuc(a1-2)Gal(b1-3)GlcNAc6S
# Summary of the method: as §1
# [15] = target: Fuc(a1-2)Gal(b1-3)[Fuc(a1-4)]GlcNAc
# Summary of the method: as §1
# [16] = target: Fuc(a1-2)Gal(b1-3)[Fuc(a1-4)]GlcNAc(b1-2)Man(a1-3)[Fuc(a1-2)Gal(b1-3)[Fuc(a1-4)]GlcNAc(b1-2)Man(a1-6)]Man(b1-4)GlcNAc(b1-4)GlcNAc
# Summary of the method: as §1
# [17] = target: Fuc(a1-2)Gal(b1-3)[Fuc(a1-4)]GlcNAc(b1-2)Man(a1-6)[Fuc(a1-2)Gal(b1-3)[Fuc(a1-4)]GlcNAc(b1-2)Man(a1-3)]Man(b1-4)GlcNAc(b1-4)[Fuc(a1-6)]GlcNAc
# Summary of the method: as §1
# [18] = target: Fuc(a1-2)Gal(b1-3)[Fuc(a1-4)]GlcNAc(b1-3)[Fuc(a1-3)[Gal(b1-4)]GlcNAc(b1-6)]Gal(b1-4)Glc
# Summary of the method: as §1
# [19] = target: Fuc(a1-2)Gal(b1-3)[Fuc(a1-4)]GlcNAc(b1-3)[Gal(b1-4)GlcNAc(b1-6)]Gal(b1-4)Glc
# Summary of the method: as §1
# Fuc(a1-2)Gal(b1-4)Glc = target: Fuc(a1-2)Gal(b1-4)Glc
# Summary of the method: as §1
# Fuc(a1-2)Gal(b1-4)Glc6S = target: Fuc(a1-2)Gal(b1-4)Glc6S
# Summary of the method: as §1
# Fuc(a1-2)Gal(b1-4)GlcNAc = target: Fuc(a1-2)Gal(b1-4)GlcNAc
# Summary of the method: as §1
# [20] = target: Fuc(a1-2)Gal(b1-4)GlcNAc(b1-2)Man
# Summary of the method: as §1
# [21] = target: Fuc(a1-2)Gal(b1-4)GlcNAc(b1-2)Man(a1-3)[Fuc(a1-2)Gal(b1-4)GlcNAc(b1-2)Man(a1-6)]Man(b1-4)GlcNAc(b1-4)GlcNAc
# Summary of the method: as §1
# [22] = target: Fuc(a1-2)Gal(b1-4)GlcNAc(b1-2)Man(a1-3)[Fuc(a1-2)Gal(b1-4)GlcNAc(b1-2)Man(a1-6)]Man(b1-4)GlcNAc(b1-4)[Fuc(a1-6)]GlcNAc
# Summary of the method: as §1
# [23] = target: Fuc(a1-2)Gal(b1-4)GlcNAc(b1-2)[Fuc(a1-2)Gal(b1-4)GlcNAc(b1-4)]Man(a1-3)[Fuc(a1-2)Gal(b1-4)GlcNAc(b1-2)Man(a1-6)]Man(b1-4)GlcNAc(b1-4)GlcNAc
# Summary of the method: as §1
# [24] = target: Fuc(a1-2)Gal(b1-4)GlcNAc(b1-3)Gal(b1-4)GlcNAc
# Summary of the method: as §1
# [25] = target: Fuc(a1-2)Gal(b1-4)GlcNAc(b1-3)Gal(b1-4)GlcNAc(b1-3)Gal(b1-4)GlcNAc
# Summary of the method: as §1
# [26] = target: Fuc(a1-2)Gal(b1-4)GlcNAc(b1-3)GalNAc
# Summary of the method: as §1
# [27] = target: Fuc(a1-2)Gal(b1-4)GlcNAc(b1-3)[Fuc(a1-2)Gal(b1-4)GlcNAc(b1-6)]GalNAc
# Summary of the method: as §1
# [28] = target: Fuc(a1-2)Gal(b1-4)GlcNAc(b1-6)GalNAc
# Summary of the method: as §1
# [29] = target: Fuc(a1-2)Gal(b1-4)GlcNAc6S
# Summary of the method: as §1
# [30] = target: Fuc(a1-2)Gal(b1-4)[Fuc(a1-3)]GlcNAc
# Summary of the method: as §1
# [31] = target: Fuc(a1-2)Gal(b1-4)[Fuc(a1-3)]GlcNAc(b1-2)Man(a1-3)[Fuc(a1-2)Gal(b1-4)[Fuc(a1-3)]GlcNAc(b1-2)Man(a1-6)]Man(b1-4)GlcNAc(b1-4)GlcNAc
# Summary of the method: as §1
# [32] = target: Fuc(a1-2)Gal(b1-4)[Fuc(a1-3)]GlcNAc(b1-2)Man(a1-6)[Fuc(a1-2)Gal(b1-4)[Fuc(a1-3)]GlcNAc(b1-2)Man(a1-3)]Man(b1-4)GlcNAc(b1-4)[Fuc(a1-6)]GlcNAc
# Summary of the method: as §1
# [33] = target: Fuc(a1-2)Gal(b1-4)[Fuc(a1-3)]GlcNAc(b1-2)[Fuc(a1-2)Gal(b1-4)[Fuc(a1-3)]GlcNAc(b1-4)]Man(a1-3)[Fuc(a1-2)Gal(b1-4)[Fuc(a1-3)]GlcNAc(b1-2)Man(a1-6)]Man(b1-4)GlcNAc(b1-4)GlcNAc
# Summary of the method: as §1
# [34] = target: Fuc(a1-2)Gal(b1-4)[Fuc(a1-3)]GlcNAc(b1-3)Gal(b1-4)[Fuc(a1-3)]GlcNAc
# Summary of the method: as §1
# [35] = target: Fuc(a1-2)Gal(b1-4)[Fuc(a1-3)]GlcNAc(b1-3)Gal(b1-4)[Fuc(a1-3)]GlcNAc(b1-3)Gal(b1-4)[Fuc(a1-3)]GlcNAc
# Summary of the method: as §1
# [36] = target: Fuc(a1-2)Gal(b1-4)[Fuc(a1-3)]GlcNAc(b1-3)GalNAc
# Summary of the method: as §1
# [37] = target: Fuc(a1-2)Gal(b1-4)[Fuc(a1-3)]GlcNAc(b1-3)[Neu5Ac(a2-6)Gal(b1-4)GlcNAc(b1-6)]Gal(b1-4)Glc
# Summary of the method: as §1
# [38] = target: Fuc(a1-2)Gal6S(b1-3)GlcNAc
# Summary of the method: as §1
# [39] = target: Fuc(a1-2)Gal6S(b1-3)GlcNAc6S
# Summary of the method: as §1
binder,measurement,setting,value
B1,glycan array binding signal (z-score),Fuc(a1-2)Gal,-0.253
same,glycan array binding signal (z-score),Fuc(a1-2)Gal(b1-3)GalNAc,-0.244
same,glycan array binding signal (z-score),[1],-0.212
same,glycan array binding signal (z-score),[2],-0.35
same,glycan array binding signal (z-score),[3],-0.052
same,glycan array binding signal (z-score),[4],-0.29
same,glycan array binding signal (z-score),[5],-0.252
same,glycan array binding signal (z-score),Fuc(a1-2)Gal(b1-3)GlcNAc,-0.174
same,glycan array binding signal (z-score),[6],-0.237
same,glycan array binding signal (z-score),[7],-0.253
same,glycan array binding signal (z-score),[8],-0.269
same,glycan array binding signal (z-score),[9],-0.251
same,glycan array binding signal (z-score),[10],-0.323
same,glycan array binding signal (z-score),[11],-0.229
same,glycan array binding signal (z-score),[12],-0.3
same,glycan array binding signal (z-score),[13],-0.366
same,glycan array binding signal (z-score),[14],-0.218
same,glycan array binding signal (z-score),[15],0.313
same,glycan array binding signal (z-score),[16],0.096
same,glycan array binding signal (z-score),[17],-0.258
same,glycan array binding signal (z-score),[18],-0.229
same,glycan array binding signal (z-score),[19],-0.317
same,glycan array binding signal (z-score),Fuc(a1-2)Gal(b1-4)Glc,-0.329
same,glycan array binding signal (z-score),Fuc(a1-2)Gal(b1-4)Glc6S,-0.201
same,glycan array binding signal (z-score),Fuc(a1-2)Gal(b1-4)GlcNAc,-0.29
same,glycan array binding signal (z-score),[20],-0.296
same,glycan array binding signal (z-score),[21],-0.241
same,glycan array binding signal (z-score),[22],-0.323
same,glycan array binding signal (z-score),[23],-0.131
same,glycan array binding signal (z-score),[24],-0.209
same,glycan array binding signal (z-score),[25],-0.194
same,glycan array binding signal (z-score),[26],-0.174
same,glycan array binding signal (z-score),[27],-0.282
same,glycan array binding signal (z-score),[28],-0.271
same,glycan array binding signal (z-score),[29],-0.226
same,glycan array binding signal (z-score),[30],-0.185
same,glycan array binding signal (z-score),[31],-0.12
same,glycan array binding signal (z-score),[32],-0.292
same,glycan array binding signal (z-score),[33],-0.066
same,glycan array binding signal (z-score),[34],-0.265
same,glycan array binding signal (z-score),[35],-0.144
same,glycan array binding signal (z-score),[36],0.815
same,glycan array binding signal (z-score),[37],-0.301
same,glycan array binding signal (z-score),[38],-0.314
same,glycan array binding signal (z-score),[39],-0.012
